Test results taken from publication PMC4336329 (PLoS ONE, 2015).
The campaign covered roughly 310,000 compounds. About 14,000 (4.5%) showed an effect of 50% or more. The effect is printed as a negative number. This is one part of the list.

Target: human ether-à-go-go-related gene (hERG) potassium channel (human, UniProt Q12809)
Assay: primary screen, population patch clamp on CHO cells stably expressing hERG
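Further: peak tail current of the secondary pulse compared with the same well before compound.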

human ether-à-go-go-related gene (hERG) potassium channel, sequence (Q12809 whole entry, looked up): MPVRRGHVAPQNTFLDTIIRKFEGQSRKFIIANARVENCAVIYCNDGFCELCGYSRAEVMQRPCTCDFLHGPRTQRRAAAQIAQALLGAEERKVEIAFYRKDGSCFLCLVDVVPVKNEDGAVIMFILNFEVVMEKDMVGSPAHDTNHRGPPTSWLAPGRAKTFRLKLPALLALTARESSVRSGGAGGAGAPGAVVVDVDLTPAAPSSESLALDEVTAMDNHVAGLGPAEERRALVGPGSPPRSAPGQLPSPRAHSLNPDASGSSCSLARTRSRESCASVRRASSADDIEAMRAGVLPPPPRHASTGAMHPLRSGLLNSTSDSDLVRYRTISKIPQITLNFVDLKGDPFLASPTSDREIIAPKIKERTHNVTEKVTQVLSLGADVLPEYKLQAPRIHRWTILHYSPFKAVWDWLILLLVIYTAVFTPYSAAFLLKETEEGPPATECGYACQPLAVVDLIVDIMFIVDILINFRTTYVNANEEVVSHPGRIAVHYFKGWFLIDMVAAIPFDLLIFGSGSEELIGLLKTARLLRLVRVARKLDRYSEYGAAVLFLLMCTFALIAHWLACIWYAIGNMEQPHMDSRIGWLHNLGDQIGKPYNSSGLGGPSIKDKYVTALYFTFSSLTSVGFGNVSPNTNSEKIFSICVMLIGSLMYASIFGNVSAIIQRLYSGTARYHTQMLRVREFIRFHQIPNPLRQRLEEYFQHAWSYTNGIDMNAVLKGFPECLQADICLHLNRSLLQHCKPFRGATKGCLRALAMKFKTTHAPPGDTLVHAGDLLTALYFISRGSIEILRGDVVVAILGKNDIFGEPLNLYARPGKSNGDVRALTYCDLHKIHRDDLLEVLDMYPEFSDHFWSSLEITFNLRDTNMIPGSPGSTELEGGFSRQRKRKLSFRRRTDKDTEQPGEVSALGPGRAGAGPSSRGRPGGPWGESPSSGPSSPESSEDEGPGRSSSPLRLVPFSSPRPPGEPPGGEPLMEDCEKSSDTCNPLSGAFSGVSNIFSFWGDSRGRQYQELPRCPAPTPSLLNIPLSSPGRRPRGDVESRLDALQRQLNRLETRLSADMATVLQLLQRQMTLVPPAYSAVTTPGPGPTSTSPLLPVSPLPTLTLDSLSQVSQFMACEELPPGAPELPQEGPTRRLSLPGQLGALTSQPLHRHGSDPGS

Compared with CCOc1cc(CC(=O)N[C@@H](CC(C)C)c2ccccc2N2CCCCC2)ccc1C(=O)O, CCOc1ccc(OCCN2CCCCC2)cc1.O=C(O)C(=O)O is lower in “hERG current change (%, negative = inhibition) at 10uM” value: 13.9% for the first, -21.7% for the second.

First: COc1ccc(/C(C)=N/Nc2cccc(C(=O)O)c2)cc1OC
Second: COc1cc2c(cc1NC(=O)COC(=O)c1ccc(C(C)(C)C)cc1)oc1ccccc12
The “hERG current change (%, negative = inhibition) at 10uM” value of the first is lower: 4.26% for the first, 9.77% for the second.

Compared with CCOc1ccc(OCCC(=O)NNC(=O)c2cc(C)oc2C)cc1, CCOC(=O)C1CSC(CC(=O)Nc2ccc(OC(F)(F)F)cc2)C(=O)N1 (centres unmarked) is lower in “hERG current change (%, negative = inhibition) at 10uM” value: 6.75% for the first, -56.3% for the second.

First: COC(=O)C1=C(C)N(CCc2cc(OC)c(OC)c(OC)c2)C(=O)N[C@H]1c1cccs1
Second: Cc1cc(C(=O)CN2C(=O)NC(CC(C)C)C2=O)c(C)n1-c1ccccc1F (centres unmarked)
The “hERG current change (%, negative = inhibition) at 10uM” value of the first is higher: 21.3% for the first, -8.7% for the second.

Going from COc1ccc(S(=O)(=O)N2CCCCCC2)cc1C(=O)N(C)CC(=O)Nc1cc(C)ccc1C to COc1ccc(NC(=O)C2CCN(S(=O)(=O)c3ccc(N4CCCC4=O)cc3)CC2)c(OC)c1, the “hERG current change (%, negative = inhibition) at 10uM” value falls from -1.65% to -8.46%.

First: CC(=O)Nc1nnc(COc2ccccc2)s1
Second: CCc1ccccc1NC(=O)CCc1nc(-c2cccs2)no1
The “hERG current change (%, negative = inhibition) at 10uM” value of the first is lower: 2.61% for the first, 2.79% for the second.

Compared with CCc1cc(=O)[nH]c(SC/C=C/c2ccccc2)n1, CCNC(=S)N1CCN(S(=O)(=O)/C=C/c2ccccc2)CC1 is lower in “hERG current change (%, negative = inhibition) at 10uM” value: 9.1% for the first, -3.43% for the second.

First: Cc1ccccc1Nc1nc(-c2ccccc2)c(C(=O)Nc2cccnc2)s1
Second: Oc1ccc(N2CCN(Cc3c(-c4ccccc4)nc4ccccn34)CC2)cc1
The “hERG current change (%, negative = inhibition) at 10uM” value of the first is higher: -4.94% for the first, -9.23% for the second.

First: O=C(Nc1ncc(Cc2cccc(C(F)(F)F)c2)s1)c1ccc(-c2cccc([N+](=O)[O-])c2)o1
Second: O=C(NCC(c1cccs1)N1CCOCC1)c1cccc([N+](=O)[O-])c1 (centres unmarked)
The “hERG current change (%, negative = inhibition) at 10uM” value of the first is higher: -0.341% for the first, -7.91% for the second.

First: O=C(COc1ccc2ccc(=O)oc2c1)Nc1ccc(N2CCCCC2)cc1
Second: O=C(COC(=O)c1ccc(Cl)c(S(=O)(=O)N2CCN(c3ccc(F)cc3)CC2)c1)Nc1cccc(Cl)c1
The “hERG current change (%, negative = inhibition) at 10uM” value of the first is lower: -2.46% for the first, 14.4% for the second.

Going from Clc1ccccc1-c1nnc2sc(C3COc4ccccc4O3)nn12 (centres unmarked) to CCC(C(=O)NCCCN(CC)Cc1ccccc1)n1nc(C)c2sc3ccccc3c2c1=O (centres unmarked), the “hERG current change (%, negative = inhibition) at 10uM” value falls from -15.3% to -68.1%.

Going from O=[n+]1c2c(n([O-])c3c1CCCC3)CCCCC2 to Cc1ccc(-c2cc3nc4c(c(=O)n3[nH]2)CCCC4)cc1, the “hERG current change (%, negative = inhibition) at 10uM” value rises from 0.534% to 8.8%.

Compared with CC1CCN(Cc2nnnn2CCCC(=O)NC(c2ccccn2)C(F)(F)F)CC1 (centres unmarked), O=C(CC1C(=O)NCCN1Cc1cccc(F)c1)NCCCCCN1CCOCC1 (centres unmarked) is higher in “hERG current change (%, negative = inhibition) at 10uM” value: 1.39% for the first, 5.36% for the second.

Going from O=C(CCS(=O)(=O)c1ccc(Br)cc1)NC1CCCCCC1 to CCOC(=O)c1ccc(NC(=S)NC2CCCC2)cc1, the “hERG current change (%, negative = inhibition) at 10uM” value falls from 3.28% to -7.86%.

Going from Cc1cccc(C(=O)N2CCN(c3ccc(C(F)(F)F)cn3)CC2)c1C to Cc1cccc(NC(=O)C2CCN(S(=O)(=O)c3c(C)noc3C)CC2)c1, the “hERG current change (%, negative = inhibition) at 10uM” value rises from -19.6% to -12.6%.

First: COc1ccccc1/C=N/NC(=O)CCSc1ccccc1
Second: N/C(=N\OC(=O)Cc1ccccc1)c1cccnc1
The “hERG current change (%, negative = inhibition) at 10uM” value of the first is higher: 18.3% for the first, -12.9% for the second.

Compared with C/C(=N\NC(=O)OC(C)(C)C)c1ccccc1Br, COC(=O)N/N=C(/c1ccccc1)C1CCCCC1 is higher in “hERG current change (%, negative = inhibition) at 10uM” value: 15.7% for the first, 31% for the second.

First: O=C(O)c1ccc(NC2=C(Cl)C(=O)c3ccccc3C2=O)cc1
Second: CCN(CC)S(=O)(=O)c1ccc(C(=O)NCCSc2c[nH]c3ccccc23)cc1
The “hERG current change (%, negative = inhibition) at 10uM” value of the first is higher: 14.7% for the first, -19.6% for the second.

First: Cc1ccc(NC(=O)COC(=O)Cc2ccsc2)cc1S(=O)(=O)N1CCOCC1
Second: O=C(COc1ccc(S(=O)(=O)N2CCOCC2)cc1)NCCN1CCOCC1
The “hERG current change (%, negative = inhibition) at 10uM” value of the first is lower: -28.6% for the first, 19% for the second.

Going from CC(C)(C)C(=O)OCOC(=O)[C@@H]1N2C(=O)[C@@H](N=CN3CCCCCC3)[C@H]2SC1(C)C.Cl to Cc1cc(C(C)(C)C)oc1C(=O)N(CC(=O)NC1CCCC1)Cc1ccccc1, the “hERG current change (%, negative = inhibition) at 10uM” value rises from -0.135% to 16.7%.

Compared with CC1CCc2c(C(=O)Nc3ccc(N4CCOCC4)cc3)csc2C1 (centres unmarked), CC(=O)Nc1ccc(NC(=O)C2CC(=O)N(C(C)C)C2)cc1 (centres unmarked) is lower in “hERG current change (%, negative = inhibition) at 10uM” value: 16.4% for the first, 11% for the second.

First: O=C(/C=C/c1ccco1)OCn1nnc2ccccc2c1=O
Second: Cl.Nc1nonc1C(=O)NCCNCc1ccccc1OCc1ccc(F)cc1
The “hERG current change (%, negative = inhibition) at 10uM” value of the first is higher: -6.79% for the first, -65.9% for the second.

Going from Cc1cc(C)cc(NC(=O)CN2C(=O)NC(C)(c3ccccc3)C2=O)c1 (centres unmarked) to C[C@@H](C(=O)Nc1nc2ccccc2s1)N1C(=O)C2CC=CCC2C1=O (some centres unmarked), the “hERG current change (%, negative = inhibition) at 10uM” value falls from 2.44% to -8.73%.

Going from CC(=O)NN1C(=O)c2ccc3c4c(ccc(c24)C1=O)C(=O)N(NC(C)=O)C3=O to CCCCN(C(=O)CCCc1nc2ccccc2c(=O)[nH]1)c1c(N)n(CCCC)c(=O)[nH]c1=O, the “hERG current change (%, negative = inhibition) at 10uM” value rises from 20.3% to 25.4%.

First: Brc1cccc(-c2nnc3sc(CN4CCCCC4)cn23)c1
Second: CCSC1=C(C#N)C(c2cccc(OC)c2)CC(=O)N1 (centres unmarked)
The “hERG current change (%, negative = inhibition) at 10uM” value of the first is lower: -11% for the first, -2.66% for the second.

Compared with COC(=O)c1cc(NC(=O)COC(=O)C2CCC2)cc(C(=O)OC)c1, O=C(O)C(=O)O.O=C1CC(Cc2ccccc2)C(=O)N1CCCn1ccnc1 (centres unmarked) is lower in “hERG current change (%, negative = inhibition) at 10uM” value: 11.3% for the first, -9.86% for the second.

Compared with Cn1cnc(S(=O)(=O)Nc2ccc(OC(F)(F)F)cc2)c1, Nc1nonc1-n1nnc(C(=O)N/N=C/c2ccncc2)c1CSc1ccc(Cl)cc1 is higher in “hERG current change (%, negative = inhibition) at 10uM” value: 6.24% for the first, 28.2% for the second.

Going from Cc1cc([N+](=O)[O-])ccc1N(C)C to On1ccccc1=S, the “hERG current change (%, negative = inhibition) at 10uM” value rises from 4% to 9.55%.
